Screen size: about 280,000 compounds; about 820 (0.29%) were called active. The shares of active, inactive and inconclusive entries below differ from those in the screen. Calls follow the shape of the dose curve; as a rule, active = well fitted curve in either direction with a large enough effect; inconclusive = small, poorly fitted or top-dose-only effect; inactive = flat fitted curve, though single readings scatter. No potency is given beside an inconclusive call; the fits are too rough.
experiment: Total Fluorescence Counterscreen for Inhibitors of the Interaction of Thyroid Hormone Receptor and Steroid Receptor Coregulator 2; conditions: TRb/SRC2 Texas Red total fluorescence interference; series mostly up to 106 µM; fluorescence change, negative = quenching: at the top concentration
Procedure, shortened: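 Human TRb ligand-binding domain at 0.6 uM with 20 nM Texas Red SRC2 peptide in Tris buffer containing 1 uM T3 and 5% DMSO, incubated with compound 5 h at ambient temperature. Total fluorescence (555/632 nm) calculated as parallel + 2 × perpendicular.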
% is scaled to controls: 0 for no effect and ±100 for the full control effect; potency is read from the fitted curve at half-maximal effect; tags tell the direction and shape of the fitted curve or compound fluorescence and quenching.

Structure (SMILES) | Potency | fluorescence change, negative = quenching
NC(=O)c1ccc(Sc2nnc(-c3cccs3)n2CC2CCCO2)c([N+](=O)[O-])c1 (stereo not drawn) | inconclusive [falling, full curve, poor fit] | 
O=C(NCCN1C(=O)S/C(=C\c2ccccc2)C1=O)c1cc(S(=O)(=O)N2CCOCC2)c(Cl)cc1Cl | inconclusive [falling, partial curve, poor fit] | 
O=C(Nc1ccc2nc(SCC(=O)N3CCc4ccccc43)sc2c1)c1cccc(F)c1 | inconclusive [falling, partial curve, poor fit] | 
Cc1ccccc1-c1nc(CS(=O)(=O)CC(=O)NCCc2ccccc2)c(C)o1 | inconclusive [falling, full curve, poor fit] | 
CCOC(=O)c1c(S(=O)(=O)N2CCCC(C(=O)NCc3ccccc3Cl)C2)c(C)n(C)c1C (stereo not drawn) | inconclusive [quencher, full curve] | 
COc1cc(Cl)c(NC(=O)c2cc(S(=O)(=O)N3CCCCC3)c[nH]2)c(OC)c1 | active: 20 µM [quencher] | 
COc1ccc(CNCCCSc2nnnn2-c2ccccc2)cc1 | inconclusive [falling, full curve, poor fit] | 
Cc1ccc(CNC(=O)Cn2c(=O)ccc3cc(S(=O)(=O)N4CCC(C)CC4)ccc32)cc1 | inconclusive [falling, partial curve, poor fit] | 
O=C1CN(CC(=O)N2CCOCC2)c2ccccc2O1 | inconclusive [quencher, partial curve] | 
CN1C(=O)c2ccccc2C1=O |  | inactive: 2.06% [at 201 µM]
CCc1ccccc1NC(=O)Cn1c(=O)n(CCCCCC(=O)NCc2ccc(C)cc2)c(=O)c2sccc21 | inconclusive [falling, partial curve, poor fit] | 
CCC(=O)Nc1cc2c(cc1C(=O)c1ccccc1)OCCO2 | active: 28.2 µM [fluorescent] | 
ONCc1ccccc1 | inconclusive [quencher, partial curve] | 
O=C(NCc1ccccc1Cl)C1CCC(CNS(=O)(=O)c2ccc(Cl)cc2)CC1 (stereo not drawn) | inconclusive [quencher, partial curve] | 
Cc1ccc(CNC(=O)CN(c2ccc(Cl)cc2Cl)S(=O)(=O)c2ccccc2)cc1 | inconclusive [quencher, full curve] | 
CCOC(=O)Cc1cc(=O)n2[nH]c(C)c(-c3ccc(OC)cc3)c2n1 | inconclusive [fluorescent, partial curve] | 
COc1cc(Cl)c(C)cc1NC(=O)CSc1ccc(C)cc1 |  | inactive: 0.801%
CCN1C=C(Cc2ccc(OC)cc2)C2=C(C1)C(c1ccc(OC)cc1)C(C#N)=C(N)O2 (stereo not drawn) | active: 50.1 µM [fluorescent] | 
O=C(CCn1cnc2ccccc2c1=O)NCc1ccccc1 | inconclusive [quencher, full curve] | 
Cc1cc(C)c2oc(-c3cccc(NC(=O)c4ccco4)c3)nc2c1 | inconclusive [falling, partial curve, poor fit] | 
CCOc1ccccc1NC(=O)c1sc(-n2nc(C)c(CCC(C)C)c2C)nc1C | inconclusive [quencher, full curve] | 

Structure (SMILES) | Potency | fluorescence change, negative = quenching
Cc1nc2c(C(=O)N(C)Cc3ccccc3)c[nH]n2c(=O)c1Cc1ccc(Cl)cc1 | inconclusive [falling, full curve, poor fit] | 
Cc1[nH]c2ccccc2c1/C=N/Nc1nc(N2CCCCC2)nc(N2CCCCC2)n1 |  | inactive: -3.27%
COC(=O)c1ccccc1NC(=O)Cn1c(=O)n(CCCC(=O)NCCc2ccc(OC)c(OC)c2)c(=O)c2ccccc21 | inconclusive [falling, full curve, poor fit] | 
COc1ccc(S(=O)(=O)NCc2ccc3c(c2)cc(C)n3C)cc1 | inconclusive [fluorescent, partial curve] | 
COc1ccc(NC(=O)c2cn3c4c(ccc(Cl)c4c2=O)OC(C)C3)cc1OC (stereo not drawn) | active: 25.1 µM [quencher] | 
COc1ccc(N(Cc2cccs2)C(=O)COc2cc(C)c(Cl)c(C)c2)cc1 | inconclusive [quencher, full curve] | 
CCOC(=O)/C(=N\Nc1cc(Cl)ccc1Cl)N1CCN(CC)CC1 | inconclusive [falling, full curve, poor fit] | 
Cc1ccc2[nH]c3c(=O)n(CC(=O)NC(C)C)ncc3c2c1 | inconclusive [falling, full curve, poor fit] | 
COc1ccc(CNC(=O)CSc2ncc(S(=O)(=O)c3ccc(Br)cc3)c(=O)[nH]2)cc1 | inconclusive [quencher, partial curve] | 
O=C(Nc1ccc(CN2CCOCC2)cc1)c1ccc(-c2ccc(Br)cc2)o1 |  | inactive: -3.17%
O=C(COC(=O)C1CCN(S(=O)(=O)c2ccc3c(c2)OCCO3)CC1)Nc1ccc(C(F)(F)F)cc1 | inconclusive [falling, partial curve, poor fit] | 
COc1ccccc1NC(=O)c1sc2ncn(Cc3ccccc3Cl)c(=O)c2c1C | inconclusive [falling, partial curve, poor fit] | 
CCOC(=O)Cc1cc(=O)n2[nH]cc(-c3cccc(Br)c3)c2n1 | inconclusive [fluorescent, full curve] | 
O=C(OCc1cccc(C(F)(F)F)c1)c1ccc(-c2nnn(Cc3ccc(F)cc3)n2)cc1 | inconclusive [quencher, full curve] | 
CCN(C(=O)c1cn(-c2ccc(OC)cc2)c(=O)c2ccccc12)c1cccc(Cl)c1 | inconclusive [falling, full curve, poor fit] | 
O=C(O)c1cccc(Oc2ccc([N+](=O)[O-])cc2)c1 | inconclusive [falling, full curve, poor fit] | 
O=C1c2ccccc2C2=Nc3ccccc3SC(c3cccc(F)c3)C12 (stereo not drawn) |  | inactive: -2.9%
Cc1cccc2cc(CN(C(=O)c3cccc(Cl)c3)c3ccccc3)c(=O)[nH]c12 |  | inactive: 3.49%
Cc1c(C(=O)Nc2ccccc2)sc2nc(-c3cc4ccccc4oc3=O)[nH]c(=O)c12 | active: 282 µM [quencher] | 
Cc1ccc(NC(=O)CCn2nc(-c3ccccc3)c3ccccc3c2=O)c(C)c1 | inconclusive [falling, full curve, poor fit] | 
CCOC(=O)c1cnn(-c2ncnc3c2oc2ccccc23)c1N |  | inactive: -2.9%

Structure (SMILES) | Potency | fluorescence change, negative = quenching
Cc1cc(Br)ccc1NC(=O)COc1cc(=O)n(C)c2ccccc12 | inconclusive [falling, full curve, poor fit] | 
CN(C)/C=N/C(=S)Nc1ccc(Cl)c(Cl)c1 |  | inactive: -3.09%
COc1cc2c(cc1OC)C(c1ccc(F)cc1)N(c1ccccc1)C(=O)C2 (stereo not drawn) | inconclusive [falling, partial curve, poor fit] | 
Cc1ccn2c(Nc3ccc4c(c3)OCO4)c(-c3ccc(C)o3)nc2c1 | inconclusive [falling, full curve, poor fit] | 
COc1ccc(NC(=O)C2(S(=O)(=O)c3ccc(C)cc3)CC2)c(OC)c1 |  | inactive: 7.71%
CCOC(=O)C1CCN(C(=O)c2ccc3c(=O)n4nc(Nc5ccccc5)sc4nc3c2)CC1 | inconclusive [falling, full curve, poor fit] | 
Cc1ccc(NC(=O)CSc2nnc(C)c(=O)[nH]2)cc1 | inconclusive [falling, full curve, poor fit] | 
O=C(CSc1nc2c(oc3ccccc32)c(=O)[nH]1)Nc1cccc(Cl)c1 | inconclusive [quencher, full curve] | 
N#CC1=C(N)OC2=C(CN(Cc3ccccc3)C/C2=C\c2cccnc2)C1c1cccnc1 (stereo not drawn) | inconclusive [fluorescent, partial curve] | 
COc1cccc(-c2ccc3ncnc(NCc4ccccc4OC)c3c2)c1 | inconclusive [falling, partial curve, poor fit] | 
COc1cc(/C=C/c2nc(C#N)c(NC(C)c3ccccc3)o2)cc(OC)c1OC (stereo not drawn) |  | inactive: -5.96%
Cc1ccc(NC(=O)CCc2c(C)nn(-c3ccc(N4CCOCC4)nn3)c2C)cc1F | inconclusive [falling, full curve, poor fit] | 
COc1ccc(N(C(=O)COc2ccc(Br)cc2)S(=O)(=O)c2ccc(C)cc2)cc1 | inconclusive [falling, full curve, poor fit] | 
Fc1ccc(-c2noc3ncnc(N4CCCCC4)c23)cc1 | active: 89.1 µM [quencher] | 
Cn1c(=O)c2c(ncn2CC(=O)Nc2cc(Cl)cc(Cl)c2)n(C)c1=O | inconclusive [falling, partial curve, poor fit] | 
COc1ccc(Cl)cc1NC(=O)CSc1nc2ccccc2nc1N1CCCCC1 | inconclusive [falling, full curve, poor fit] | 
COc1ccc(CCC(=O)NCc2nc3cccnc3n2Cc2ccc(OC)cc2)cc1 |  | inactive: -1.01%
COc1ccc2c(c1)OC/C(=C/c1ccc(OC)c(OC)c1)C2=O |  | inactive: 1.63%
N#C/C(=C/c1ccc(N2CCOCC2)o1)C(=O)N1CCOCC1 | active: 44.7 µM [fluorescent] | 
CCOc1ccc(CCNC(=O)c2ccc(CS(=O)(=O)Cc3ccccc3Cl)o2)cc1OCC |  | inactive: -3.24%
Cc1cc(OCC(=O)OCC(=O)Nc2cc(C(F)(F)F)ccc2N2CCOCC2)ccc1Cl | inconclusive [falling, full curve, poor fit] | 
